Reference: the supplement of paper PMC12217912
This is one part of the list. The full chains were built here from the parent and the listed change. Values near 0.05 are background.

B1: TEV protease; numbered along this chain (parent)
chain: MGESLFKGPRDYNPISSSICHLTNESDGHTTSLYGIGFGPFIITNKHLFRRNNGTLVVQSLHGVFKVKDTTTLQQHLVDGRDMIIIRMPKDFPPFPQKLKFREPQREERICLVTTNFQTKSMSSMVSDTSCTFPSGDGIFWKHWIQTKDGQCGSPLVSTRDGFIVGIHSASNFTNTNNYFTSVPKNFMELLTNQEAQQWVSGWRLNADSVLWGGHKVFMVKPEEPFQPVKEATQL

Variants of: B1
Test: raw area under fraction-flipped curve 0-4 h after induction (AUC4h, not background-subtracted), DNA-recorder readout of cleavage of the substrate (dimensionless); higher = more cleavage of the substrate by the protease variant
Conditions: temperature: 34 °C; time window: 0-4 h after rhamnose induction
Description: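 In vivo DNA recorder in E. coli TOP10(DE3) ΔrhaA at 34 °C. Each TEVp single-site mutant (parent TEVp 0) is paired with a single-site variant of the 7-mer TEVs (canonical ENLYFQ|S). The substrate sits between flexible linkers in a Bxb1-sfGFP-TEVs-SsrA fusion, so cleavage stabilises Bxb1 and speeds flipping of a recombination array, read by NGS. The value is the raw area under the fraction-flipped curve over 0-4 h after rhamnose induction (AUC4h), with ≥20 reads per time point. It is not background-subtracted; inactive controls average about 0.047.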
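Note: Bxb1 expression induced with 0.2% (w/v) L-rhamnose at OD600 near 0.5, cultures sampled hourly, flipped fraction per protease–substrate barcode pair counted by paired-end Illumina sequencing.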

| Variant | area with substrate ENLYFCS | area with substrate ENLYFES | area with substrate ENLYFFS | area with substrate ENLYFIS | area with substrate ENLYFKS | area with substrate ENLYFLS | area with substrate ENLYFMS | area with substrate ENLYFNS | area with substrate ENLYFPS | area with substrate ENLYFRS | area with substrate ENLYFSS | area with substrate ENLYFTS | area with substrate ENLYFWS | area with substrate ENLYFYS | area with substrate ENLYFDS | area with substrate ENLYFGS | area with substrate ENLYFHS | area with substrate ENLYFVS |
| --- | --- | --- | --- | --- | --- | --- | --- | --- | --- | --- | --- | --- | --- | --- | --- | --- | --- | --- |
| MGESLFKGPRDYNPISSSICHLTNESDGHTTSLYGIGFGPFIITNKHLFRRNNGTLVVQSLHGVFKVKDTTTLQQHLVDGRDMIIIRMPPDFPPFPQKLKFREPQREERICLVTTNFQTKSMSSMVSDTSCTFPSGDGIFWKHWIQTKDGQCGSPLVSTRDGFIVGIHSASNFTNTNNYFTSVPKNFMELLTNQEAQQWVSGWRLNADSVLWGGHKVFMVKPEEPFQPVKEATQL [K90P] | 0.0546 | 0.0731 | 0.063 | 0.0613 | 0.0604 | 0.0663 | 0.0751 | 0.0582 | 0.0504 | 0.0439 | 0.0579 | 0.0598 | 0.0665 | 0.0559 | – | – | – | – |
| MGESLFKGPRDYNPISSSICHLTNESDGHTTSLYGIGFGPFIITNKHLFRRNNGTLVVQSLHGVFKVKDTTTLQQHLVDGWDMIIIRMPKDFPPFPQKLKFREPQREERICLVTTNFQTKSMSSMVSDTSCTFPSGDGIFWKHWIQTKDGQCGSPLVSTRDGFIVGIHSASNFTNTNNYFTSVPKNFMELLTNQEAQQWVSGWRLNADSVLWGGHKVFMVKPEEPFQPVKEATQL [R81W] | 0.0511 | 0.0721 | 0.0632 | 0.061 | 0.0435 | 0.0646 | – | 0.0539 | 0.0853 | – | 0.0479 | – | 0.061 | 0.0696 | 0.056 | 0.0615 | – | – |
| MGESLFKGPRDYNPISSSICHLTNESDGHTTSLYGIGFGPFIITNKHLFRRNNGTLVVQSLHGVFKVKDTTTLQQHLVDGSDMIIIRMPKDFPPFPQKLKFREPQREERICLVTTNFQTKSMSSMVSDTSCTFPSGDGIFWKHWIQTKDGQCGSPLVSTRDGFIVGIHSASNFTNTNNYFTSVPKNFMELLTNQEAQQWVSGWRLNADSVLWGGHKVFMVKPEEPFQPVKEATQL [R81S] | 0.0592 | 0.0714 | 0.0849 | 0.0741 | 0.0555 | 0.0547 | 0.0652 | 0.0766 | 0.0551 | 0.0811 | 0.0693 | 0.0604 | 0.0528 | – | 0.0472 | 0.0562 | 0.0708 | 0.0677 |
| MGESLFKGPRDYNPISSSICHLTNESDGHTTSLYGIGFGPFIITNKHLFRRNNGTLVVQSLHGVFKVKDTTTLQQHQVDGRDMIIIRMPKDFPPFPQKLKFREPQREERICLVTTNFQTKSMSSMVSDTSCTFPSGDGIFWKHWIQTKDGQCGSPLVSTRDGFIVGIHSASNFTNTNNYFTSVPKNFMELLTNQEAQQWVSGWRLNADSVLWGGHKVFMVKPEEPFQPVKEATQL [L77Q] | 0.0575 | 0.0597 | 0.0466 | 0.0533 | 0.0621 | 0.0551 | 0.0661 | 0.0455 | 0.0607 | 0.0799 | 0.0644 | – | 0.0597 | – | – | – | – | – |
| MGESLFKGPRDYNPISSSICHLTNESDGHTTSLYGIGFGPFIITNKHLFRRNNGTLVVQSLHGVFKVKDTTTLQQHLVDGRDMIIIAMPKDFPPFPQKLKFREPQREERICLVTTNFQTKSMSSMVSDTSCTFPSGDGIFWKHWIQTKDGQCGSPLVSTRDGFIVGIHSASNFTNTNNYFTSVPKNFMELLTNQEAQQWVSGWRLNADSVLWGGHKVFMVKPEEPFQPVKEATQL [R87A] | 0.0542 | – | 0.0627 | – | – | – | 0.0699 | – | – | – | 0.0471 | – | – | – | – | – | – | 0.0713 |
| MGESLFKGPRDYNPISSSICHLTNESDGHTTSLYGIGFGPFIITNKHLFRRNNGTLVVQSLHGVFKVKDTTTLQQHLVDGRDMIIIYMPKDFPPFPQKLKFREPQREERICLVTTNFQTKSMSSMVSDTSCTFPSGDGIFWKHWIQTKDGQCGSPLVSTRDGFIVGIHSASNFTNTNNYFTSVPKNFMELLTNQEAQQWVSGWRLNADSVLWGGHKVFMVKPEEPFQPVKEATQL [R87Y] | 0.0504 | 0.0635 | 0.0568 | – | 0.0713 | 0.0577 | 0.0674 | – | 0.0995 | 0.0566 | – | 0.0582 | – | – | – | 0.0657 | – | 0.0557 |
| MGESLFKGPRDYNPISSSICHLTNESDGHTTSLYGIGFGPFIITNKHLFRRNNGTLVVQSLHGVFKVKDTTTLQQHLVDGRDMIIIFMPKDFPPFPQKLKFREPQREERICLVTTNFQTKSMSSMVSDTSCTFPSGDGIFWKHWIQTKDGQCGSPLVSTRDGFIVGIHSASNFTNTNNYFTSVPKNFMELLTNQEAQQWVSGWRLNADSVLWGGHKVFMVKPEEPFQPVKEATQL [R87F] | 0.043 | 0.0573 | 0.0754 | 0.0543 | 0.0641 | 0.0398 | 0.0576 | 0.0559 | 0.071 | 0.0605 | 0.0646 | 0.068 | 0.0531 | – | – | 0.0595 | – | 0.0589 |
| MGESLFKGPRDYNPISSSICHLTNESDGHTTSLYGIGFGPFIITNKHLFRRNNGTLVVQSLHGVFKVKDTTTLQQHLVDGRPMIIIRMPKDFPPFPQKLKFREPQREERICLVTTNFQTKSMSSMVSDTSCTFPSGDGIFWKHWIQTKDGQCGSPLVSTRDGFIVGIHSASNFTNTNNYFTSVPKNFMELLTNQEAQQWVSGWRLNADSVLWGGHKVFMVKPEEPFQPVKEATQL [D82P] | 0.0427 | 0.0624 | 0.0492 | 0.0336 | 0.0492 | – | – | – | 0.0618 | – | – | 0.061 | – | 0.012 | 0.0444 | – | – | – |
| MGESLFKGPRDYNPISSSICHLTNESDGHTTSLYGIGFGPFIITNKHLFRRNNGTLVVQSLHGVFKVKDTTTLQQHLVDGRAMIIIRMPKDFPPFPQKLKFREPQREERICLVTTNFQTKSMSSMVSDTSCTFPSGDGIFWKHWIQTKDGQCGSPLVSTRDGFIVGIHSASNFTNTNNYFTSVPKNFMELLTNQEAQQWVSGWRLNADSVLWGGHKVFMVKPEEPFQPVKEATQL [D82A] | 0.0365 | – | 0.0746 | 0.0561 | – | – | – | 0.0631 | 0.0553 | 0.0415 | – | 0.08 | – | – | – | – | 0.0485 | 0.0476 |
| MGESLFKGPRDYNPISSSICHLTNESDGHTTSLYGIGFGPFIITNKHLFRRNNGTLVVQSLHGVFKVKDTTTLQQHLVDGRDMIITRMPKDFPPFPQKLKFREPQREERICLVTTNFQTKSMSSMVSDTSCTFPSGDGIFWKHWIQTKDGQCGSPLVSTRDGFIVGIHSASNFTNTNNYFTSVPKNFMELLTNQEAQQWVSGWRLNADSVLWGGHKVFMVKPEEPFQPVKEATQL [I86T] | 0.0565 | 0.0589 | 0.0726 | 0.0564 | 0.0576 | – | 0.0496 | – | 0.0524 | 0.0447 | – | 0.0448 | 0.0471 | – | – | – | 0.0405 | – |
